{"source": "PubChem BioAssay AID1671194", "about": "(National Center for Advancing Translational Sciences (NCATS), 2021)", "note": "Hit rate of the full screen: of about 140,000 compounds, about 240 (0.17%) were called active. The shares of active, inactive and inconclusive entries below differ from those in the screen. Calls come from the whole dose curve; as a rule, active = well fitted inhibition curve with a large enough effect; inconclusive = small, poorly fitted or top-dose-only effect; inactive = no such curve, though single readings can be large or run the other way. A potency beside an inconclusive call is a rough fit, not a confirmed value. Potency is the fitted concentration of half-maximal effect; tags give direction and shape of the fitted curve."}
{"test": "Primary qHTS assay for inhibitors of alpha-synuclein gene (SNCA) expression; note: nearly all actives have a fitted effect of over 45% in size", "conditions": "HEK-293 SNCA-luciferase knock-in, luminescence, 24 h; series mostly up to 57.2 µM"}
{"smiles": "CN1C(=O)c2ccccc2Sc2ccc(NC(=O)NCc3ccccc3Br)cc21", "Potency": "inconclusive: 39.8 µM [inhibitor, single point]"}
{"smiles": "COc1cccc(CN2C(=O)C3(SCC(=O)N3c3ccc(F)cc3)c3ccccc32)c1", "note": "(stereo not given)", "Potency": "inconclusive: 10 µM [inhibitor, partial curve]"}
{"smiles": "COc1cc(NC(=O)Cn2ccn3nc(-c4ccccc4)c(CO)c3c2=O)cc(OC)c1OC", "Potency": "inactive"}
{"smiles": "Cc1ncc(CO)c(CN2CCCC23Cc2ccccc2CNC3=O)c1O", "note": "(stereo not given)", "Potency": "inactive"}
{"smiles": "COc1ccc(N2CCN(C(=O)c3c(C)nn(-c4ccc(F)cc4)c3-n3cccc3)CC2)cc1", "Potency": "inconclusive: 39.8 µM [inhibitor, partial curve, poor fit]"}
{"smiles": "O=C(c1cccc2[nH]ccc12)N1CCC(N2C(=O)C3(CCCCC3)C2c2ccncc2)CC1", "note": "(stereo not given)", "Potency": "inconclusive: 39.8 µM [inhibitor, single point]"}
{"smiles": "Cc1nn2c(c1-c1ccccc1N1CCCC1)N(C(=O)c1cccc(N(C)C)c1)CCC2", "Potency": "inconclusive: 20 µM [inhibitor, single point]"}
{"smiles": "Cn1cc(C2c3nccn3CCCN2C(=O)c2ccccc2F)cn1", "note": "(stereo not given)", "Potency": "inactive"}
{"smiles": "O=C(NCc1ccc(F)cc1)c1nn(CCOc2ccccc2)c2c1CNCC2", "Potency": "inconclusive: 31.6 µM [inhibitor, partial curve, poor fit]"}
{"smiles": "Cc1nc(CCNS(=O)(=O)c2cccs2)no1", "Potency": "inactive"}
{"smiles": "COCCN1C(=O)[C@H]2CN(Cc3ccc(OC)c(Br)c3)C[C@H]2C1=O", "Potency": "inconclusive: 8.91 µM [inhibitor, single point]"}
{"smiles": "c1ccc(-c2noc(-c3cncnc3NC3CCCCC3)n2)cc1", "Potency": "inactive"}
{"smiles": "O=C(CN1C(=O)COc2ccc(S(=O)(=O)NC3CCCC3)cc21)Nc1ccc(F)c(Cl)c1", "Potency": "inconclusive: 31.6 µM [inhibitor, single point]"}
{"smiles": "O=C(c1ccc(Cl)nc1)N1CCC2(CC1)CCN(Cc1cccs1)c1ccccc1O2", "Potency": "inconclusive: 22.4 µM [inhibitor, single point]"}
{"smiles": "Cc1ccc(-n2ncc(C(=O)NCCN3CCc4ccccc4C3)c2C2CCN(C(=O)OC(C)(C)C)CC2)c(C)c1", "Potency": "inconclusive: 31.6 µM [inhibitor, single point]"}
{"smiles": "COc1ccc(-n2nc3c(N4CCCC(C(=O)NCc5ccccc5C)C4)nnc(C)c3c2C)cc1", "note": "(stereo not given)", "Potency": "inconclusive: 22.4 µM [inhibitor, partial curve, poor fit]"}
{"smiles": "O=C(NCCn1cc(SCc2ccc(C(F)(F)F)cc2)c2ccccc21)c1cccs1", "Potency": "inconclusive: 39.8 µM [inhibitor, single point]"}
{"smiles": "Cc1nnc(SCC(=O)NCc2cccc(F)c2)c2nn(-c3ccccc3)c(C)c12", "Potency": "inconclusive: 39.8 µM [inhibitor, single point]"}
{"smiles": "O=C(Nc1cccc(C(F)(F)F)c1)N[C@H]1[C@H](O)[C@@H](N2CCC(Cc3ccccc3)CC2)[C@@H]2OC[C@H]1O2", "Potency": "inconclusive: 10 µM [inhibitor, partial curve, poor fit]"}
{"smiles": "CCCS(=O)(=O)NCCc1sc2nc(-c3ccc(Cl)cc3)nn2c1C", "Potency": "inconclusive: 2.82 µM [inhibitor, partial curve, poor fit]"}
{"smiles": "O=C(NC1CCCCCC1)c1nc2sccn2c1-c1ccc(C(F)(F)F)cc1", "Potency": "inconclusive: 25.1 µM [inhibitor, partial curve, poor fit]"}
{"smiles": "Cc1[nH]c2ccccc2c1C1(O)C(=O)N(Cc2ccccc2)c2ccc(Br)cc21", "note": "(stereo not given)", "Potency": "inconclusive: 15.8 µM [inhibitor, partial curve, poor fit]"}
{"smiles": "Cc1ccc(NC(=O)Nc2csc3c2CCCC3)c(C)c1", "Potency": "inconclusive: 2 µM [inhibitor, full curve, poor fit]"}
{"smiles": "CCC1(O)CC2CN(CCc3c([nH]c4ccccc34)[C@@](C(=O)OC)(c3cc4c(cc3OC)N(C)C3[C@]45CCN4CC=C[C@@](CC)([C@@H](OC(C)=O)[C@]3(O)C(=O)OC)[C@H]45)C2)C1", "note": "(stereo not given in full)", "Potency": "inconclusive: 39.8 µM [inhibitor, single point]"}
{"smiles": "c1ccc(COc2ccccc2CN2CCC3(CCNCC3)C2)cc1", "Potency": "inactive"}
{"smiles": "O=C(c1cc2cc(Cl)ccc2[nH]1)N1C[C@@H](CO)[C@H](c2ccccn2)C1", "Potency": "inconclusive: 39.8 µM [inhibitor, single point]"}
{"smiles": "Cc1ccc2c(c1)N(CCCC(=O)N1CCC(C)(c3noc(-c4ccccc4)n3)CC1)C(=O)CO2", "Potency": "inconclusive: 28.2 µM [inhibitor, single point]"}
{"smiles": "Cc1nn(C)c(C)c1CCC(=O)N1CCC(Cc2noc(-c3ccc(F)cc3)n2)C1", "note": "(stereo not given)", "Potency": "inactive"}
{"smiles": "CCOc1ccc(N(CC(=O)NCc2ccc(C)cc2)S(=O)(=O)c2c(C)[nH]c(=O)[nH]c2=O)cc1", "Potency": "inconclusive: 3.16 µM [inhibitor, single point]"}
{"smiles": "O=C1NC(=NC2CCCCC2)C2(CCCN(Cc3ccc(F)cc3)C2)N1c1cc(F)cc(F)c1", "note": "(stereo not given)", "Potency": "inconclusive: 15.8 µM [inhibitor, partial curve, poor fit]"}
{"smiles": "CC(=O)N1c2ccc(S(=O)(=O)NCC3CCC(C(=O)Nc4cccc(F)c4)CC3)cc2CC1C", "note": "(stereo not given)", "Potency": "inconclusive: 20 µM [inhibitor, partial curve]"}
{"smiles": "COc1ccc(S(=O)(=O)N2CCN(C(=O)c3cc(-c4ccc(Br)cc4)n[nH]3)CC2)cc1OC", "Potency": "inconclusive: 39.8 µM [inhibitor, single point]"}
{"smiles": "O=C1NCCCCCCN(C(=O)Nc2ccc3c(c2)OCCO3)[C@H]2CCC[C@@H]12", "Potency": "inactive"}
{"smiles": "O=C(NCc1cccc(C(F)(F)F)c1)c1ccc2nnc(-c3cccc(C(F)(F)F)c3)n2c1", "Potency": "inconclusive: 10 µM [inhibitor, partial curve, poor fit]"}
{"smiles": "CCOC(=O)C1CCCN(C(=O)c2nc3sccn3c2-c2cccc(C(F)(F)F)c2)C1", "note": "(stereo not given)", "Potency": "inactive"}
{"smiles": "CCOc1ccc(-c2n[nH]c3c2C(c2cccs2)N(c2ccc(Br)cc2)C3=O)cc1", "note": "(stereo not given)", "Potency": "inconclusive: 22.4 µM [inhibitor, partial curve, poor fit]"}
{"smiles": "Cn1nc(C2CC2)cc1NC(=O)c1cccc(Cl)c1", "Potency": "inactive"}
{"smiles": "O=C(c1cc(-c2ccc(Cl)cc2Cl)c2cccn2n1)N1CCN(c2ncccn2)CC1", "Potency": "inconclusive: 7.08 µM [inhibitor, single point]"}
{"smiles": "CN(Cc1ccccc1)Cc1cc(C[C@H]2CNCC[C@H]2CC(=O)N2CCN(c3ccccn3)CC2)no1", "Potency": "inconclusive: 8.91 µM [inhibitor, single point]"}
{"smiles": "O=C(Nc1ccc(Cl)cc1F)N1CCc2nc3cc[nH]n3c(=O)c2C1", "Potency": "inactive"}
{"smiles": "COc1ccc(OC)c(NC(=O)CC2CCCCN(Cc3ccccc3)C2=O)c1", "note": "(stereo not given)", "Potency": "inconclusive: 31.6 µM [inhibitor, partial curve, poor fit]"}
{"smiles": "O=C(c1ccccc1)N1CCC2(C1)C(=NC1CCCCC1)NC(=O)N2c1cccnc1", "note": "(stereo not given)", "Potency": "inconclusive: 1.26 µM [inhibitor, full curve, poor fit]"}
{"smiles": "O=C(C1CC1)N1C[C@@H]2OCC(=O)N(CC3CC3)[C@@H]2C1", "Potency": "inconclusive: 28.2 µM [inhibitor, partial curve, poor fit]"}
{"smiles": "CCOc1ccc2c(n1)CCN(C(=O)Nc1cc(C)ccc1C)C2", "Potency": "inactive"}
{"smiles": "O=C(CCn1cncn1)N(CC1CCN(Cc2ccccc2F)CC1)CC1CCCO1", "note": "(stereo not given)", "Potency": "inactive"}
{"smiles": "CC(C)c1cnc2c(c1SCC(=O)c1ccc(Cl)cc1)c(=O)n(C)c(=O)n2C", "Potency": "inconclusive: 8.91 µM [inhibitor, partial curve]"}
{"smiles": "COc1ncccc1-c1nccn2c(C3CN(Cc4c[nH]c5ccccc45)C3)ncc12", "Potency": "inconclusive: 14.1 µM [inhibitor, partial curve, poor fit]"}
{"smiles": "COc1ccc(-c2ccc3ncc(Nc4ccccc4OC)n3n2)cn1", "Potency": "inconclusive: 56.2 µM [inhibitor, single point]"}
{"smiles": "COc1ccc(Cl)cc1NC(=O)c1c(NCc2cccnc2)sc2c1CCCC2", "Potency": "inconclusive: 17.8 µM [inhibitor, single point]"}
{"smiles": "Cc1noc(C)c1CC(=O)N1CCCC2(C1)Nc1cccnc1NC2=NCc1ccccc1", "note": "(stereo not given)", "Potency": "inactive"}
{"smiles": "O=C(Nc1cccc2ccccc12)O[C@@H]1CO[C@H]2[C@@H]1OC[C@@H]2Nc1nccc(-c2cccc(F)c2)n1", "Potency": "inconclusive: 39.8 µM [inhibitor, single point]"}
{"smiles": "Cc1ccc(C)c(Cn2c(=O)n(CCc3ccccc3)c(=O)c3c(C)c(C)sc32)c1", "Potency": "inconclusive: 39.8 µM [inhibitor, single point]"}
{"smiles": "Cc1ccc(CNC(=O)c2ccc(-c3ccc(N4CCSCC4)nc3)cc2)o1", "Potency": "inactive"}
{"smiles": "O=C(NC1CCCN(c2cc(-c3ccc(F)cc3)[nH]n2)C1)c1ccc2cc[nH]c2c1", "note": "(stereo not given)", "Potency": "inactive"}
{"smiles": "CNCc1ccccc1OC(F)(F)F", "Potency": "inconclusive: 12.6 µM [inhibitor, partial curve, poor fit]"}
{"smiles": "CCn1cc2nc(SCc3c(F)cccc3Cl)n(CCc3ccccc3)c(=O)c2n1", "Potency": "inconclusive: 39.8 µM [inhibitor, partial curve, poor fit]"}
{"smiles": "COc1cc(OC)c(NC(=O)Cn2c(=O)nc(-c3ccccc3)c3ccccc32)cc1Cl", "Potency": "inconclusive: 7.08 µM [inhibitor, single point]"}
{"smiles": "O=C(COc1ccccc1)N1CCCCCC1c1nnc(-c2ccccc2)o1", "note": "(stereo not given)", "Potency": "inactive"}
{"smiles": "CN(C)c1cccc(Oc2nnnn2[C@H]2CO[C@H]3[C@@H]2OC[C@@H]3NC(=S)Nc2cccc(C#N)c2)c1", "Potency": "inconclusive: 39.8 µM [inhibitor, single point]"}
{"smiles": "COc1cccc(Cn2c(=O)n(-c3cc(C)cc(C)c3)c(=O)c3oc4ccccc4c32)c1", "Potency": "inconclusive: 6.31 µM [inhibitor, single point]"}
